Data: publication PMC4336329 (PLoS ONE, 2015)
Hit rate of the full screen: of about 310,000 compounds, about 2,200 (0.71%) showed an effect of 50% or more. Effects have a minus sign here. The list shows a part of the results.

Biological target: human ether-à-go-go-related gene (hERG) potassium channel (human, UniProt Q12809)
Assay: primary screen, population patch clamp on CHO cells stably expressing hERG

Sequence of human ether-à-go-go-related gene (hERG) potassium channel (Q12809 whole entry, looked up): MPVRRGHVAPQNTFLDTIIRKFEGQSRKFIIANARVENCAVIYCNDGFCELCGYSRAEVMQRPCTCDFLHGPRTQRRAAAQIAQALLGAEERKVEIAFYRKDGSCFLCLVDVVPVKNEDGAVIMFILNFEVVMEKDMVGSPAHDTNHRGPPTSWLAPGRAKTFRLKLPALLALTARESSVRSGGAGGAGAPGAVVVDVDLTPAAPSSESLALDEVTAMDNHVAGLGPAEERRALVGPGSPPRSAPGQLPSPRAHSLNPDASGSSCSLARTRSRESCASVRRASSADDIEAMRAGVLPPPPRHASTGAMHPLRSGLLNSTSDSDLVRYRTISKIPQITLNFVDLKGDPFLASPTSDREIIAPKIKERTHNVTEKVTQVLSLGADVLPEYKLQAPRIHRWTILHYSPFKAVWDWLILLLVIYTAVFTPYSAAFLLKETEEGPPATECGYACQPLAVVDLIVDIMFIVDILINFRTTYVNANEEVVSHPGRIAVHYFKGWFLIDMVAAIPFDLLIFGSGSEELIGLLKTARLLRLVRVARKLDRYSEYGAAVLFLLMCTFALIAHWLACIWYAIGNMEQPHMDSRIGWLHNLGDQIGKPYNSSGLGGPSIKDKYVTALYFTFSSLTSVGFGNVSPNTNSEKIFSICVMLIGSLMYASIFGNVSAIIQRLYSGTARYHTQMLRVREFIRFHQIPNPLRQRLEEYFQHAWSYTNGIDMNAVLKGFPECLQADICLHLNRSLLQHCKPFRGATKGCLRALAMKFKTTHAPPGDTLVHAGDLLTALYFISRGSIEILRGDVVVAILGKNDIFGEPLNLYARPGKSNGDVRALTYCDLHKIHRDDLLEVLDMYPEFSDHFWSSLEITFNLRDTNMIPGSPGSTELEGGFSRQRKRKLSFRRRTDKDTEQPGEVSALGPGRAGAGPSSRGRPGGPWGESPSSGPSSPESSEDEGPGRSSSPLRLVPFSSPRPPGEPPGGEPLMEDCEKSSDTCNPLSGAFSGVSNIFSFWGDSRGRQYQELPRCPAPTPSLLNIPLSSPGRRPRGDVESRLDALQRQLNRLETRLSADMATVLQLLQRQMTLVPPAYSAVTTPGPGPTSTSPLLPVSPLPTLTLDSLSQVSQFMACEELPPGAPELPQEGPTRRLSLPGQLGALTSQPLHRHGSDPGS

| Structure (SMILES) | hERG current change (%, negative = inhibition) at 1uM [%] |
| --- | --- |
| O=C1NC(=O)C(=Cc2cc(Cl)ccc2OCc2ccc(C(=O)O)cc2)C(=O)N1 | 13 |
| CCc1n[nH]c(=S)n1/N=C/c1cc(OC)cc([N+](=O)[O-])c1O | 8.45 |
| CC(=O)OC1N=C(c2ccccc2Cl)c2cc(Br)ccc2N(C)C1=O (stereo not drawn) | 6.22 |
| CCOc1ccc(N2C(=O)C3CC(C)=C(C)CC3C2=O)c([N+](=O)[O-])c1 (stereo not drawn) | 0.693 |
| CC(C)Nc1nnc(SC(C)C(=O)Nc2ccc(Cl)cn2)s1 (stereo not drawn) | 6.77 |
| C/C(=N\NC(=S)NCc1ccccc1)c1cccs1 | 5.43 |
| CNC(=O)N(C1=NCC(C)(C)S1)c1ccc(F)c(Cl)c1 | 15.7 |
| O=C(c1ccc(Oc2ccccc2)cc1)c1nc2c(n1O)CCCC2 | 13.1 |
| COc1ccc(OC)c(/C=C/C(=O)N(C)CC(=O)Nc2cc(C)ccc2C)c1 | -7.55 |
| C=C(C)c1cccc(C(C)(C)NC(=O)NCC2COCCO2)c1 (stereo not drawn) | 11.1 |
| C/C(=N/Nc1ccc(F)cc1)c1ccc(Cl)s1 | 11.3 |
| Cc1ccc(CNC(=O)C2CCN(S(=O)(=O)N3CC(C)CC(C)C3)CC2)cc1 (stereo not drawn) | 12.5 |
| CC(OC(=O)C1CCCC1)C(=O)Nc1ccc(S(N)(=O)=O)cc1 (stereo not drawn) | 14.6 |
| O=[N+]([O-])c1ccc(Nc2ccccc2)c2nonc12 | 12.7 |
| O=C(Nc1cccc(C(=O)O)c1)/C(=C\c1ccc(F)cc1)NC(=O)c1ccco1 | 12.1 |
| CCOc1ccc(Cc2n[nH]c(=S)n2N)cc1 | 17.4 |
| O=C(CC1SCCNC1=O)Nc1ccc(Cl)c(Cl)c1 (stereo not drawn) | 3.37 |
| Cc1ccccc1CN1CCc2cc([N+](=O)[O-])ccc21 | 17.2 |
| Cc1nc2ncnn2c(N2CCN(S(=O)(=O)c3ccc(Br)cc3)CC2)c1C | 16.9 |
| CCc1ccccc1N(CC(=O)NC1CCCCC1)C(=O)CNC(=O)c1ccco1 | 8.43 |
| COc1cccc2cc(C(=O)Nc3ccccc3C(=O)N3CCOCC3)oc12 | -2.75 |
| Cc1c(S(=O)(=O)N(C)C2CCCCC2)c(=O)n(C)c(=O)n1C | 4.71 |
| CC1CCCCC1NC(=O)c1ccc(N2CCCC2=O)cc1 (stereo not drawn) | 3.76 |
| Cc1cccc(-c2nnc(SCC#N)n2-c2cccc(Cl)c2)c1 | 2.7 |

| Structure (SMILES) | hERG current change (%, negative = inhibition) at 1uM [%] |
| --- | --- |
| CCCn1ncc([C@@H]2C[C@H]3CN(Cc4cccc(Cl)c4)C(=O)[C@]34CCCN24)c1C | -8.01 |
| COc1ccc(NS(=O)(=O)c2cccc3cccnc23)cc1 | 8.14 |
| CCN(CC)C(=O)CSc1ncnc2c1cnn2Cc1ccccc1 | -0.877 |
| Oc1ccc(/C=N/NC(=S)NC2CC3CCC2C3)cc1 (stereo not drawn) | 12.4 |
| CC(C)(C)[C@@H]1C=C(C(=O)N2CCN(Cc3ccccc3)CC2)O[C@H](OCCCCO)C1 | 11.7 |
| COc1ccccc1OCC(=O)N1CC2(C)CC1CC(C)(C)C2 (stereo not drawn) | 5.05 |
| COc1ccc2cc3cc(C(=O)NCCN4CCN(Cc5ccccc5)CC4)oc3nc2c1 | -9.26 |
| CC(=O)c1c(O)n(C2CCCCCC2)c(=O)[nH]c1=O | 9.59 |
| Cc1noc(C)c1CSCC(=O)N(C)CC(=O)Nc1ccc(F)c(F)c1F | 21.5 |
| COc1cccc(CN2C(=NC(=O)CCC3CCCC3)SC3CS(=O)(=O)CC32)c1 (stereo not drawn) | 12.9 |
| CN1CCN(/C=C2\SC(=S)NC2=O)CC1 | 12.8 |
| CCc1nc2ccc(C(=O)NCCc3ccccc3OC)cc2nc1CC | 7.22 |
| COc1ccc(CNc2ccc3c(c2)nc(C)n3C)cc1 | -9.96 |
| O=C(N/N=C\c1ccccc1)c1cccc(C(=O)N/N=C\c2ccccc2)n1 | 7.86 |
| Cc1nccn1CCC(=O)O.Cl | 5.56 |
| CCOC(=O)c1ccc(NC(=O)CSc2ccc(-c3ccccn3)nn2)cc1 | 2.65 |
| CCOc1ccc(N(CC(=O)NCc2ccccc2)S(=O)(=O)c2c(C)noc2C)cc1 | 9.52 |
| CCOC(=O)C1C(=O)OC(C)(C)C1C(C)C(=O)c1ccc(C)cc1 (stereo not drawn) | 4.69 |
| CC(O)[C@H]1CNC(=O)C(=O)N1CCCCC1CCCCC1 (stereo partly drawn) | 12.3 |
| Cl.NC1=NC(c2cccc(Cl)c2)N(CCc2ccc(F)cc2)C(N)=N1 (stereo not drawn) | 14.8 |
| CCOC(=O)N1CCN(CC(=O)Nc2nc3ccccc3s2)CC1 | 1.23 |
| C=CCNC(=O)COC(=O)c1cc(S(=O)(=O)N2CCCCC2)ccc1Cl | 9.82 |
| NS(=O)(=O)c1ccc(CCNC(=O)[C@@H]2CCCN2S(=O)(=O)c2ccccc2F)cc1 | -0.666 |
| Cn1c(CN2CCCCC2)nc2cc([N+](=O)[O-])ccc21 | -2.57 |

| Structure (SMILES) | hERG current change (%, negative = inhibition) at 1uM [%] |
| --- | --- |
| CC(C)Oc1ccc(NC(=O)Oc2ccccc2)cc1 | 5.56 |
| Cc1ccc(Sc2ccc(/C=N/O)cc2[N+](=O)[O-])cc1 | 14.9 |
| COc1ccccc1NCC(=O)N/N=C(\C)c1ccc(Br)s1 | 5.63 |
| Cc1cccnc1NC(=S)NC(=O)/C=C/c1ccccc1 | 7.1 |
| CN(CCOc1ccccc1)CCOc1ccccc1 | 5.27 |
| CCCCCCCCCCCCN1[C@@H](CC(=O)OC)c2cc(F)ccc2S1(=O)=O | 7.11 |
| CC(C)CNC(=S)N1CCC(c2nc(-c3ccc(F)cc3)no2)CC1 | 3.85 |
| COc1ccc(-c2nnc(SCCC(=O)O)n2-c2ccccc2)cc1 | 4.49 |
| CCC(OC(=O)C1=Cc2ccccc2OC1)C(=O)NC1CCCC1 (stereo not drawn) | -0.674 |
| Oc1ccc(-c2c(C3=CCCCC3)sc3ccccc23)cc1 | 13.2 |
| O=C(O)/C=C\C(=O)O.S=C(NC1CCCCC1)N1CCC(c2cnc[nH]2)CC1 | -3.21 |
| COC(=O)c1ccccc1NC(=O)Nc1cccnc1 | 5.29 |
| C=CCNc1nc(C)c(CNc2c(C)cc(C)cc2C)nc1C#N | 7.83 |
| CCN(CC(=O)NCc1ccc(F)cc1)CC(O)COCc1cccc(OC)c1 (stereo not drawn) | -14.5 |
| Cn1c(=O)oc2cc(S(=O)(=O)Nc3cccc(C(=O)O)c3)ccc21 | 21.8 |
| O=C(CN1CCOCC1)Nc1ccc([N+](=O)[O-])cc1Br | -11.7 |
| CCn1c(SCC(=O)OC2CCCCC2)nc2ccccc2c1=O | -3.23 |
| CCCCN1C(=O)C(O)(CC(=O)c2c(C)n[nH]c2C)c2cc(Br)ccc21 (stereo not drawn) | 8.7 |
| CSc1ccc(Cl)c(C(=O)N2CCOc3ccccc32)c1 | 1.03 |
| Cc1cc(C)c(NC(=O)CNC(=O)CN2C(=O)NC3(CCCc4ccccc43)C2=O)c(C)c1 (stereo not drawn) | 9.9 |
| O=C(Cc1ccc(F)cc1)NCC1CCCO1 (stereo not drawn) | 7.61 |
| Nc1cccc2c1C(=O)N(c1ccccc1)C2=O | -2.75 |
| CC(=O)c1ccc(NC(=O)CSc2cn[nH]n2)cc1 | 15.1 |
| CC(C)Oc1cccc(C(=O)Nc2ncn[nH]2)c1 | 10.6 |

| Structure (SMILES) | hERG current change (%, negative = inhibition) at 1uM [%] |
| --- | --- |
| CCN(CC)S(=O)(=O)c1cccc(-c2nnc(SCC(=O)c3cc(C)n(C4CC4)c3C)o2)c1 | 15.4 |
| COc1ccc(/C=N/NC(=O)CNC(=O)C2COc3ccccc3O2)cc1OC (stereo not drawn) | -2.79 |
| CN1C2CCC1CC(OC(=O)c1cc(Cl)cc(Cl)c1)C2.Cl (stereo not drawn) | -26.4 |
| COc1ccc(C2CC(=O)c3cc(OC)c(OC)cc32)cc1OC (stereo not drawn) | 17.2 |
| O=C1Nc2ccc(S(=O)(=O)N3CCCC3)c3cccc1c23 | 3.9 |
| N#C/C(=C\c1ccc(O)c(O)c1)C(=O)Nc1ccccc1 | 11.8 |
| CSc1nnnn1-c1cccc(O)c1 | 6.49 |
| CC1=C(C(=O)OC2CCCCC2)C(c2ccc(C)o2)C2=C(CCCC2=O)N1 (stereo not drawn) | 0.605 |
| CCSc1ncnc2c1oc1ccccc12 | 18.7 |
| CCNc1nc(Oc2ccc(F)cc2)cc(C(F)(F)F)n1 | 9.09 |
| O=C(c1ccsc1)N1CCN(C(=O)c2cccs2)CC1 | -11.7 |
| Cc1ccc(-n2cc3c(-c4cccc(Br)c4)nnc(C)c3n2)cc1 | 13.3 |
| CCn1cc(C(=O)N2CCc3ccccc3C2)c(=O)c2cc(S(=O)(=O)N3CCCCC3)ccc21 | -19.3 |
| Cc1ccc(NC(=O)CCN2C(=O)CSC2=O)c(C)c1 | 24.9 |
| CCOC(=O)N1CCN(S(=O)(=O)c2ccc(Br)cc2)CC1 | 9.69 |
| CCOC(=O)C1CCCN(C(=O)COC(=O)C2=COCCO2)C1 (stereo not drawn) | 14.6 |
| O=C(c1ccccc1)c1ccccc1N/C=C/c1nnnn1-c1ccccc1 | 10.9 |
| COc1ccccc1/C=C/C=N/n1c(-c2ccncc2)n[nH]c1=S | 18.8 |
| CC(Oc1cc2oc(=O)c3c(c2cc1Cl)CCCC3)C(=O)NCc1ccncc1 (stereo not drawn) | 12.4 |
| CC(C)c1ccc(NC(=O)Nc2cc3sccc3n2C)cc1 | 12.5 |
| CC(=O)c1c(C)[nH]c(C(=O)OCC(=O)Nc2ccc([N+](=O)[O-])cc2Cl)c1C | 4.5 |
